Source: PMC6345720
No constants are given. Whether binding was seen depends on the method and setting. In cells and extracts the contact can be indirect. Some results given as binding are weak or reduced against the parent protein; the word gives no strength. Tags and fused reporters may be left off the sequences shown. One block for each binder: values may come before it.

Tests used:
[1] = target: T1, PLDδ-cYFP-HA (35S::PLDδ-cYFP-HA) (Arabidopsis thaliana) (UniProt Q9C5Y0); assay: split reporter; BiFC: nYFP and cYFP fusions co-expressed in N. benthamiana leaves; confocal microscopy 2.5 days after infiltration
T1 sequence: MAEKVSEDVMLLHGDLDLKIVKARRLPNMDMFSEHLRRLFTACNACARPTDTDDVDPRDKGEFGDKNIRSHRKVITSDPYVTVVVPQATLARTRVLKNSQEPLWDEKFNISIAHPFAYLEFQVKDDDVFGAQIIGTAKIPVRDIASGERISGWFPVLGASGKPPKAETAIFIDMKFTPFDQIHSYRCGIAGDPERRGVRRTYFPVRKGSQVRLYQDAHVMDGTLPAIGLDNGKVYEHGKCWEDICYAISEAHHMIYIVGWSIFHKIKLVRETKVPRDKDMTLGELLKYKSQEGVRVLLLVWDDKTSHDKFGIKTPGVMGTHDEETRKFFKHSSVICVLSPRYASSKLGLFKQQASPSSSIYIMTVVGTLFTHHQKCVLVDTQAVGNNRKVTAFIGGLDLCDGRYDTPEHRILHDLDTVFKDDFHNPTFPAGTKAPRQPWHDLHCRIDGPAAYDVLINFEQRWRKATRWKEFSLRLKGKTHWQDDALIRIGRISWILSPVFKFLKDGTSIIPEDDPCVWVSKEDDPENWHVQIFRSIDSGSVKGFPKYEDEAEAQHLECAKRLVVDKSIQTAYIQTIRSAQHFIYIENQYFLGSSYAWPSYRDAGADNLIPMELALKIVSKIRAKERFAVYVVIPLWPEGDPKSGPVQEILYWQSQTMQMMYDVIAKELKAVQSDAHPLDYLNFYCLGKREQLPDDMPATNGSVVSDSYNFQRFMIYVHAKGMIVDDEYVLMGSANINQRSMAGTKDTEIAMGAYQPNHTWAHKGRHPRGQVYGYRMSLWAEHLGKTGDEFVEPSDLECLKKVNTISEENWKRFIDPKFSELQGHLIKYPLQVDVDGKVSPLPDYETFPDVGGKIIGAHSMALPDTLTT

[2] = target: T2, PLDδ-YFP-HA (35S::PLDδ-YFP-HA, in A. thaliana) (Arabidopsis thaliana) (UniProt Q9C5Y0); assay: co-IP; stable transgenic A. thaliana plants containing 35S::PLDδ-YFP-HA and pRPM1::RPM1-Myc; plants with pRPM1::RPM1-Myc alone as negative control
T2 sequence: T1 sequence

binding [1]: binds
B1: RPM1-nYFP-HA (35S::RPM1-nYFP-HA) (receptor, UniProt Q39214 1-926)
chain: MASATVDFGIGRILSVLENETLLLSGVHGEIDKMKKELLIMKSFLEDTHKHGGNGSTTTTTQLFQTFVANTRDLAYQIEDILDEFGYHIHGYRSCAKIWRAFHFPRYMWARHSIAQKLGMVNVMIQSISDSMKRYYHSENYQAALLPPIDDGDAKWVNNISESSLFFSENSLVGIDAPKGKLIGRLLSPEPQRIVVAVVGMGGSGKTTLSANIFKSQSVRRHFESYAWVTISKSYVIEDVFRTMIKEFYKEADTQIPAELYSLGYRELVEKLVEYLQSKRYIVVLDDVWTTGLWREISIALPDGIYGSRVMMTTRDMNVASFPYGIGSTKHEIELLKEDEAWVLFSNKAFPASLEQCRTQNLEPIARKLVERCQGLPLAIASLGSMMSTKKFESEWKKVYSTLNWELNNNHELKIVRSIMFLSFNDLPYPLKRCFLYCSLFPVNYRMKRKRLIRMWMAQRFVEPIRGVKAEEVADSYLNELVYRNMLQVILWNPFGRPKAFKMHDVIWEIALSVSKLERFCDVYNDDSDGDDAAETMENYGSRHLCIQKEMTPDSIRATNLHSLLVCSSAKHKMELLPSLNLLRALDLEDSSISKLPDCLVTMFNLKYLNLSKTQVKELPKNFHKLVNLETLNTKHSKIEELPLGMWKLKKLRYLITFRRNEGHDSNWNYVLGTRVVPKIWQLKDLQVMDCFNAEDELIKNLGCMTQLTRISLVMVRREHGRDLCDSLNKIKRIRFLSLTSIDEEEPLEIDDLIATASIEKLFLAGKLERVPSWFNTLQNLTYLGLRGSQLQENAILSIQTLPRLVWLSFYNAYMGPRLRFAQGFQNLKILEIVQMKHLTEVVIEDGAMFELQKLYVRACRGLEYVPRGIENLINLQELHLIHVSNQLVERIRGEGSVDRSRVKHIPAIKHYFRTDNGSFYVSLSS

binding [2]: binds
B2: RPM1-Myc (pRPM1::RPM1-Myc, in the A. thaliana line AT5) (receptor, UniProt Q39214 1-926)
chain: B1 chain
